Results reported in paper PMC4336329 (PLoS ONE, 2015).
Screen size: about 310,000 compounds; about 2,200 (0.71%) showed an effect of 50% or more. The effect is printed as a negative number. The list shows a part of the results.

target: human ether-à-go-go-related gene (hERG) potassium channel (human, UniProt Q12809); assay: primary screen, population patch clamp on CHO cells stably expressing hERG
Sequence (Q12809 whole entry, looked up): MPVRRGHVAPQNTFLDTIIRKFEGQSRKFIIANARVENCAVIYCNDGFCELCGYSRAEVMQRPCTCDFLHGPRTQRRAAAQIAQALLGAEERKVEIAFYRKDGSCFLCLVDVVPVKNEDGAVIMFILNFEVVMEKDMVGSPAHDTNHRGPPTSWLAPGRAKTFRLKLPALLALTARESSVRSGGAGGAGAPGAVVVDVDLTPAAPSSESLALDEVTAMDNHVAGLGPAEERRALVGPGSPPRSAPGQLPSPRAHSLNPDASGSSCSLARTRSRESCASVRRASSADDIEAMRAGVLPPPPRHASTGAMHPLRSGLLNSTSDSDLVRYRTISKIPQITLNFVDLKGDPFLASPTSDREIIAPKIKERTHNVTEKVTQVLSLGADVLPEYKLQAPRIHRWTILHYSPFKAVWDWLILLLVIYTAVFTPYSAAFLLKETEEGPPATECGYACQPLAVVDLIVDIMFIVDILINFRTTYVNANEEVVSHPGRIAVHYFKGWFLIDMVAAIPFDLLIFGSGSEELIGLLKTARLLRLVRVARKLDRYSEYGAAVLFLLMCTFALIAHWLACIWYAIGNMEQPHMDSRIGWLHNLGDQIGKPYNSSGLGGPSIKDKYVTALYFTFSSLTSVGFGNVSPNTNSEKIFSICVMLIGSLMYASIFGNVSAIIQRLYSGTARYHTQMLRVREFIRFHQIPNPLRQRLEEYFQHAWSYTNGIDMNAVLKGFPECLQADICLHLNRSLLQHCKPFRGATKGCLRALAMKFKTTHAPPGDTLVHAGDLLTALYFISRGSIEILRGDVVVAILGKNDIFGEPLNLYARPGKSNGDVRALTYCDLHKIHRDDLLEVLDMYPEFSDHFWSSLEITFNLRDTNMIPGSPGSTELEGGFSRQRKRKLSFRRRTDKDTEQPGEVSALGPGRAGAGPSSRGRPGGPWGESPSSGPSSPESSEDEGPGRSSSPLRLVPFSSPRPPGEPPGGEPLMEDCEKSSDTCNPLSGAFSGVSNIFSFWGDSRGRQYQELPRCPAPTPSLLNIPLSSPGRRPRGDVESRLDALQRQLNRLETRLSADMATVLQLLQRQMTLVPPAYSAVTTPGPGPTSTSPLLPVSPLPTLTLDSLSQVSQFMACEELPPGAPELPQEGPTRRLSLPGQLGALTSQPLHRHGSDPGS

| Compound | hERG current change (%, negative = inhibition) at 1uM [%] |
| --- | --- |
| COc1ccc(-c2csc3nc[nH]c(=O)c23)cc1OC | 5.27 |
| CCOC(=O)c1ccc(N2C(=O)CC(N3CCCC(C)C3)C2=O)cc1 (stereo not drawn) | 7.58 |
| COc1ccccc1Nc1ccc(S(=O)(=O)N2CCCCC2)cc1[N+](=O)[O-] | 11.3 |
| Nc1nc(SCC(=O)Nc2ccc(OCc3ccccc3)cc2)n[nH]1 | 18.3 |
| O=C(O)C1=NN(c2ccccc2)C(=O)C1 | 10.7 |
| CCOC(=O)Nc1ccc(C(=O)c2ccncc2)cc1 | 15.9 |
| C[C@H](NC(=O)C1CCN(S(=O)(=O)c2ccccc2)CC1)C(=O)NCc1ccc(F)cc1 | 9.38 |
| Cn1nnnc1N=N/C(=N/Nc1ccccc1)c1ccccc1 | 10.1 |
| Cc1ccc(CNC(=O)c2cc(S(=O)(=O)N3CCCCC3)ccc2N2CCOCC2)cc1 | 3.62 |
| CC(CN1CCCCC1)OC(=O)c1ccccc1Cl.Cl (stereo not drawn) | 13.6 |
| CCOc1nc(C)cc(C)c1S(=O)(=O)c1cccc(C)c1 | 10.9 |
| Cc1cccc(CC2SC(N)=NC2=O)c1.Cl (stereo not drawn) | 8.97 |
| COc1ccccc1N1CCN(CCCNC(=O)Nc2ccccc2C)CC1 | -3.8 |
| O=C(O)c1ccc2c(c1)C(=O)N(c1ncccn1)C2=O | 7.75 |
| Cc1ccc(C(=O)CSc2nc3ccccc3c(=O)[nH]2)cc1C | 15.4 |
| Cl.OC(COCC1COc2ccccc2O1)CN1CCc2ccccc2C1 (stereo not drawn) | -28.1 |
| COc1cc2c(cc1OC)C(C)N(CC(=O)Nc1ccc(C)c(S(=O)(=O)N3CCOCC3)c1)CC2 (stereo not drawn) | 12.4 |
| COCCn1c(SCC(=O)NNC(=O)c2ccc(OC)c(OC)c2)nc2ccccc2c1=O | -3.69 |
| CN(Cc1ccccc1)S(=O)(=O)c1ccc(OCC(=O)N2CCC(C(N)=O)CC2)cc1 | 2.08 |
| Cl.OC(COc1ccc2ccccc2c1)CN1CCOCC1 (stereo not drawn) | 2.37 |
| COCc1cc(C)nc(OCC(=O)N/N=C/c2ccc(C)cc2)c1C#N | 13.3 |
| COc1ccc(S(=O)(=O)CCC(=O)NCCc2cccc(C)c2)cc1 | -3.81 |

| Compound | hERG current change (%, negative = inhibition) at 1uM [%] |
| --- | --- |
| CC(=O)c1cccc(NC(=S)NC(=O)c2cccc(Cl)c2)c1 | 6.39 |
| Cc1ccc(/C=C2\SC(=S)N(CCCC(=O)N3CCOCC3)C2=O)cc1 | -7.65 |
| Cc1cc(-c2c(C)[nH]n(-c3ccccc3)c2=O)n(-c2ccccc2)n1 | 2.93 |
| O=C(NCc1ccc(Cl)cc1)C1CCN(c2nnc(N3CCCC3=O)s2)CC1 | 11.6 |
| Cc1ccc(C)n1-c1sc2c(c1C(=O)O)CCCC2 | 10.9 |
| CCc1ccc(N2C(=O)NC(=O)C(Cc3ccc(OC)cc3OC)C2=O)cc1 (stereo not drawn) | 18.6 |
| COc1ccc(-c2csc3ncn(Cc4ccccc4)c(=O)c23)cc1 | 11.2 |
| COc1ccc(-n2c(O)c(/C=N/n3cnnc3)c3ccccc3c2=O)cc1 | 5.02 |
| COc1ccc(/C=N/NC(=O)c2ccccc2[N+](=O)[O-])cc1CN1CCc2cc(OC)c(OC)cc2C1C (stereo not drawn) | -10.4 |
| COc1ccccc1C(C)NC(=O)CCOc1cccc(C)c1 (stereo not drawn) | 3.83 |
| CCc1cc(C(=O)N2CCN(c3ccccc3OC)CC2)sc1C | 1.68 |
| COc1cc(C(Nc2ccccn2)c2ccc3ccc(C)nc3c2O)cc(OC)c1O (stereo not drawn) | 11.5 |
| CCN(CC)S(=O)(=O)c1ccc(N2CCOCC2)c(NC(=O)C23CC4CC(CC(Cl)(C4)C2)C3)c1 | 6.75 |
| COC(OC)C(C)NC(=O)NC(=O)c1ccccc1Cl (stereo not drawn) | 11.2 |
| CCC1=C(OC(=O)N(CC)CC)N2C(=O)OC(=NCC3CC3)[C@]2(Cc2ccccc2)[C@H]2C1=CC[C@H]1C(=O)NC(=O)[C@H]12 | 8.34 |
| COc1cc(CN2CCCC(CO)(Cc3ccccc3C)C2)cc2c1OCO2 (stereo not drawn) | -0.303 |
| COC(=O)c1c(C)nc(C)c2c(=O)oc3ccccc3c12 | 2.75 |
| COc1ccc(-n2c(=O)cc(N3CCN(Cc4ccccc4)CC3)[nH]c2=O)cc1 | 11.1 |
| CC1=CC(=O)N(c2cccc(C(F)(F)F)c2)C1c1ccc(Cl)cc1 (stereo not drawn) | -3.67 |
| CCCCNC(=O)CSc1nc2ccc(NC(=O)CSc3nnc(N)s3)cc2s1 | 11.1 |
| COc1ccc(CSc2nnc(-c3ccncc3)n2N)cc1 | 15.4 |
| COC(=O)c1ccc(Oc2coc3cc(OCc4cnn(-c5ccccc5)c4)ccc3c2=O)cc1 | 9.71 |

| Compound | hERG current change (%, negative = inhibition) at 1uM [%] |
| --- | --- |
| COc1ccc(NC(=O)/C(=C\c2cc(OC)c(OC)cc2[N+](=O)[O-])NC(=O)c2ccccc2)cc1 | 12.9 |
| C/C(N)=C(/C#N)C(=O)CN1C(=O)NC(Cc2c[nH]c3ccccc23)C1=O (stereo not drawn) | 11.7 |
| O=C(NNS(=O)(=O)c1ccccc1)c1ccc(O)cc1 | 7.02 |
| CCN1C(=O)/C(=C2\C=Cc3ccccc3N2CC)SC1=S | 12.1 |
| CCCCOC(=O)Nc1ccc(OC)cc1S(=O)(=O)N1CCOCC1 | -5.36 |
| COc1ccc(C(CNC(=O)Cc2ccc(Cl)c(Cl)c2)N2CCCCC2)cc1 (stereo not drawn) | -0.779 |
| CC(C)[C@@H](CSc1ccccc1)N1CCN(Cc2ccccc2)CCC1=O | -7.86 |
| COc1cc2cc(Oc3ccc4ccc(=O)oc4c3)c(=O)oc2cc1OC(=O)C=C(C)C | 5.86 |
| CCOc1ccc(NC(=O)CC(NCc2ccccn2)C(=O)O)cc1 (stereo not drawn) | 27.3 |
| COC(=O)c1oc2ccc(Cl)cc2c1NC(C)=O | 12.8 |
| CN1CCN(c2cc3c(cc2F)c(=O)c(C(=O)O)cn3CCF)CC1 | 13.1 |
| CCCN(CC(=O)Nc1ccccc1C)C(=O)c1ccc2[nH]c3c(c2c1)CC(C)CC3 (stereo not drawn) | 10.2 |
| COc1ccc(-n2nc3cc(C)c(N)cc3n2)cc1Cl | 6.46 |
| CCOC(=O)/C(N=Nc1sc(C(=O)OCC)c(C)c1C(=O)OCC)=C(\C)O | 2.16 |
| COc1cccc(NC(=S)NNC(=O)C(C)n2nc(C)c([N+](=O)[O-])c2C)c1 (stereo not drawn) | 9.18 |
| CC(NCC(O)COc1ccc(S(=O)(=O)N2CCOCC2)cc1)c1ccccc1 (stereo not drawn) | -1.58 |
| CCn1c(SCC(=O)Nc2ccc(N3CCOCC3)cc2)nnc1-c1ccc(OC)cc1 | -2.01 |
| CCc1nc(NCC2CCCN2CC)c2nnn(Cc3ccccc3F)c2n1 (stereo not drawn) | -22.9 |
| COC(=O)C(Cc1c[nH]c2ccccc12)NC(=O)c1ccccc1Br (stereo not drawn) | 13.8 |
| COc1ccc(-c2cc(C(=O)N3CCN(C(=O)c4ccccc4F)CC3)[nH]n2)cc1 | 0.943 |
| Cc1ccc(N(Cc2ccccc2)C(=O)c2cccc(F)c2)cc1 | 16.8 |
| CC(=O)Nc1cccc(NC(=O)CSc2ccc(-c3cccnc3)nn2)c1 | 10.8 |

| Compound | hERG current change (%, negative = inhibition) at 1uM [%] |
| --- | --- |
| O=[N+]([O-])c1cccc(S(=O)(=O)NCCCn2ccnc2)c1 | 0.375 |
| Cc1oc(-c2cccc(Cl)c2)nc1CN1CCC(C(=O)N2CCN(c3ccccn3)CC2)CC1 | -44.6 |
| Cc1cc(C)cc(NC(=O)c2ccc(S(=O)(=O)NCc3cccnc3)cc2)c1 | 9.11 |
| COc1cccc2c1-c1c(C(=O)O)cccc1C2=O | 9.72 |
| O=C1N=C(N2CCN(c3cccc4ccccc34)CC2)S/C1=C/c1cccs1 | 4.84 |
| CC1=CC(=C(C#N)C#N)C=C(C)N1CCN1CCNCC1 | 2.5 |
| CCC(C)NS(=O)(=O)c1ccc(NS(C)(=O)=O)cc1 (stereo not drawn) | 6.28 |
| Cc1cc2ncc(S(=O)(=O)c3ccccc3)c(N)n2n1 | 5.52 |
| CC(O)C(NC(=O)OCc1ccccc1)C(=O)OCc1ccccc1 (stereo not drawn) | 5.3 |
| COc1cccc(/C=C/C(=O)OCC(=O)Nc2ccc3[nH]c(=O)[nH]c3c2)c1OC | -1.71 |
| COc1ccc(CCNC(=O)c2cc(S(=O)(=O)N(C)C)ccc2N2CCCC2)cc1 | 19.3 |
| CCOC(=O)C1CCCN(C(=O)c2cc3c(-c4cccc(OC)c4)nn(C)c3s2)C1 (stereo not drawn) | 2.57 |
| N#C/C(=C\c1ccccc1)C(=O)NC1CC1 | 12.6 |
| COc1ccc(CNC(=O)c2ccc3c(c2)NC(=O)C(C)S3)cc1 (stereo not drawn) | 11.6 |
| CCOC(=O)c1sc2nc(CSc3ccccc3)nc(NCCN(C)C)c2c1C | -13.4 |
| N#Cc1ccc(C(=O)Nc2ccc(S(=O)(=O)NC3=NCCCCC3)cc2)cc1 | 6.13 |
| c1ccc2c(c1)ccc1nnc(SCc3ccc4c(c3)OCO4)n12 | 6.04 |
| CSc1nc(=O)n2cc(C)ccc2n1 | 11.3 |
| CC(C)(C)c1csc(CS(=O)(=O)c2ccccn2)n1 | -2.07 |
| Cc1sc(NC(=O)c2cc(-c3ccc(Cl)cc3)nc3ccccc23)c(C(N)=O)c1C | 8.72 |
| Cc1ccc(C)c(C(=O)N2CCC(n3nccc3NC(=O)C3CC3)CC2)c1 | -0.929 |
